From PubChem BioAssay AID686979 (National Center for Advancing Translational Sciences (NCATS), 2013)
In all, about 420,000 compounds went through this assay and about 50,000 (12%) were called active. The inconclusive results got no clear call from the source; some entries with a clear call stand among them for comparison. Calls come from the whole dose curve; as a rule, active = well fitted inhibition curve with a large enough effect; inconclusive = small, poorly fitted or top-dose-only effect; inactive = flat fitted curve, though single readings scatter. No potency is given beside an inconclusive call; the fits are too rough.

Experiment: qHTS for Inhibitors of human tyrosyl-DNA phosphodiesterase 1 (TDP1): qHTS in cells in presence of CPT; note: nearly all actives have a fitted effect of over 55% in size
Conditions: chicken DT40 Tdp1-/-;hTDP1 cells + 20 nM CPT, ATP luminescence, 48 h; activity change, negative = growth inhibition: at 46.2 µM (top of the series) unless noted
Outline: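 Chicken DT40 Tdp1-/- cells stably complemented with human TDP1 were seeded at 400 cells/well in medium containing 20 nM camptothecin, exposed to pin-transferred compounds, and grown at 37 °C for at least 48 hr. Viability was read as ATP luminescence.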
% is set by controls: 0 for no effect and ±100 for the full control effect; potency is the fitted concentration of half-maximal effect; tags give direction and shape of the fitted curve.

SMILES	activity change, negative = growth inhibition	Potency
O=C(c1cc(C2CC2)nn1-c1ccccc1)N1CCN(c2ncc(C(F)(F)F)cc2Cl)CC1	inconclusive: -31.1% [inhibitor]	
O=C(Nc1ccc2nccnc2c1)c1ccco1		inconclusive [inhibitor, single point]
O=C(CN1CCN(S(=O)(=O)c2ccc(Br)s2)CC1)NC1CCCCC1		inconclusive [inhibitor, single point]
Cc1ccc(S(=O)(=O)N2CCN(C3CC(=O)N(CCc4ccccc4)C3=O)CC2)cc1C (centres undefined)		inconclusive [inhibitor, single point]
COCCNC(=O)c1c[nH]c2ccc(S(=O)(=O)N(C)c3ccc(C)c(C)c3)cc2c1=O		inconclusive [inhibitor, partial curve]
Cc1ccsc1C(=O)N(Cc1cc2cc3c(cc2nc1N1CCOCC1)CCC3)CC1CCCO1 (centres undefined)	inactive: -9.89% [at 9.04 µM]	
COc1cc(C(=O)N2CCN(c3ccc(C)cc3C)CC2)cc(OC)c1OC		active: 2.91 µM
CCN(CC)S(=O)(=O)c1ccc(C(=O)NCCSc2c(-c3ccc(F)cc3)[nH]c3ccccc23)cc1		active: 8.2 µM
c1ccc2c(c1)Cc1ccccc1O2		inactive
CN(CC(=O)Nc1c(Cl)cccc1Cl)C(=O)CNC(=O)c1ccc2ccccc2c1		inactive
CCOC(=O)c1c(/N=C/C2=C(O)CC(C)(C)CC2=O)sc(C)c1C		inactive
COc1ccc(-c2noc(CCC(=O)N3CCN(Cc4ccccc4)CC3)n2)cc1		inactive
CCn1c(=O)cc(OCC(=O)N2CCN(c3ccc(C)cc3)C(C)C2)c2ccccc21 (centres undefined)		active: 7.31 µM
CCOC(=O)c1c(C)[nH]c(C(=O)CN2C(=O)NC(CC)(c3ccccc3)C2=O)c1C (centres undefined)		inconclusive [inhibitor, single point]
CCC(=O)Nc1ccc2nc(SCCOc3ccc(C)cc3OC)sc2c1		inconclusive [inhibitor, single point]
COc1ccccc1-n1cc(C(=O)N2CCCC(CO)(Cc3ccccc3C)C2)cn1 (centres undefined)		inconclusive [inhibitor, single point]
CN(C)S(=O)(=O)c1cccc(NC(=O)CSc2nc3ccccc3[nH]2)c1		inconclusive [inhibitor, single point]
CN1CCN(c2ncc3nc(-c4cn(C)c5ccccc45)c(=O)n(-c4ccccc4)c3n2)CC1		inconclusive [inhibitor, single point]
COc1cccc2c(SCC(=O)N/N=C/c3ccc(O)cc3O)cc(C)nc12		inconclusive [inhibitor, single point]
N#Cc1ccc(C(=O)N2CCC3CC2c2cc(N4CCCCC4)ccc23)cc1 (centres undefined)		active: 16.4 µM
CCOC(=O)c1c(C)sc2c1N(C(C)=O)c1cc(Cl)ccc1S2		inconclusive [inhibitor, single point]
Cc1ccccc1CN1CCN(CC(=O)NCc2ccccc2)C1=O		inactive
COc1ccc(CCN2CC(C#N)=C3c4cc(OC)c(OC)cc4CCN3C2)cc1OC		inconclusive [inhibitor, single point]

SMILES	activity change, negative = growth inhibition	Potency
COc1ccc(-c2sc3ccc(OC)cc3c2C#Cc2ccccn2)cc1		inconclusive [inhibitor, partial curve, poor fit]
COc1cccc(CN(C)C(=O)c2ccc(S(=O)(=O)Nc3ccccc3F)cc2)c1OC		inconclusive [inhibitor, partial curve, poor fit]
COc1ccc(-c2nnn(CC(=O)N(Cc3cccs3)C(C)C(=O)NCCC(C)C)n2)cc1OC (centres undefined)		active: 14.6 µM
COc1ccc(Cc2n[nH]c(=S)n2-c2cc(C)ccc2C)cc1OC		inactive
CC(c1ccco1)N(C(=O)COc1ccc(Cl)cc1Cl)c1ccccn1 (centres undefined)		inconclusive [inhibitor, single point]
Cc1cccc(Nc2cc(=O)n(C)c(=O)n2C)c1		inactive
CCOC(=O)[C@]12CCCC=C1N(Cc1ccc(Cl)cc1Cl)C(=O)[C@H](CC(=O)NCc1cccc3ccccc13)C2		active: 25.9 µM
O=c1[nH]ncc2c3ccccc3n(Cc3cccc(Cl)c3)c12		inactive
Cn1nc(-c2ccccc2)nc1-c1ccccc1		inconclusive [inhibitor, partial curve]
Cc1ccc(S(=O)(=O)C[C@@H]2OC[C@H](Cc3ccccc3)N2S(=O)(=O)c2ccc(C)cc2)cc1		inconclusive [inhibitor, single point]
CCCOc1cccc(C(=O)N(Cc2sccc2C)C2CCS(=O)(=O)C2)c1 (centres undefined)		inconclusive [inhibitor, single point]
O=C(c1c(F)cccc1F)N1CCN(c2cccc(C(F)(F)F)c2)CC1		inconclusive [inhibitor, single point]
CC(=O)C1CCC2C3CCC4=CC(=O)C=CC4(C)C3CCC12C (centres undefined)		active: 20.6 µM
CCN(CC)S(=O)(=O)c1ccc(N/N=C(\C)c2ccncc2)nc1		active: 23.1 µM
CCOc1nc(Nc2ccccc2)nc(OCC)n1		inconclusive [inhibitor, single point]
Cn1c(=O)n(Cc2ccccc2)c(=O)c2c1nc1n2CCN1c1ccccc1		inactive
CCCSc1oc(-c2ccco2)nc1S(=O)(=O)c1ccccc1		inconclusive [inhibitor, single point]
O=C(Cn1cc(SCc2c(F)cccc2Cl)c2ccccc21)N1CCCCC1		inconclusive [inhibitor, single point]
O=C(CCCN1C(=O)/C(=C/c2ccccc2Cl)SC1=S)N1CCCC1		inconclusive [inhibitor, single point]
Cc1ccc(C)c(N(CC(=O)NCc2ccccc2)C(=O)c2csnn2)c1		inactive
CN(c1ccc(OCC(=O)NC2CCC(O)CC2)cc1)S(=O)(=O)c1ccc(Cl)cc1 (centres undefined)		inconclusive [inhibitor, single point]
CC#CCN(CC#CC)S(=O)(=O)c1ccc(S(=O)(=O)N2CCOCC2)cc1		inconclusive [inhibitor, partial curve]
Cc1cccn2cc(-c3cccc(NC(=O)C(C)C)c3)nc12		inconclusive [inhibitor, single point]

SMILES	activity change, negative = growth inhibition	Potency
COCCNC(=O)C(c1c[nH]c2ccccc12)N(C(=O)c1snc(C(N)=O)c1N)c1cccc(OC)c1 (centres undefined)		inconclusive [inhibitor, single point]
Cc1ccc(CNC(=O)c2ccc(C#CC(C)(C)O)s2)cc1		inactive
CCOC(=O)C1=C(CS(=O)(=O)c2ccc(F)c(C)c2)NC(=O)NC1c1ccc(O)c(O)c1 (centres undefined)		inactive
O=S(=O)(c1ccc(F)cc1)N(CCO)CC(O)Cn1c2ccccc2c2ccccc21 (centres undefined)		inconclusive [inhibitor, single point]
CCN(CC)CCNC(=O)CN1N=C(c2ccc(OC)cc2)CCC1=O		inactive
COc1cc(C(=O)NC(=S)N(CCc2ccccc2)CCc2ccccc2)cc(OC)c1OC		active: 23.1 µM
Cc1cc(Br)ccc1NC(=O)CN(C)C(=O)C1CCN(c2ncnc3sc(C)c(C)c23)CC1		inconclusive [inhibitor, single point]
CC(=O)C1=C(O)C(=O)N(c2ccc(Br)cn2)C1c1ccccc1F (centres undefined)		inconclusive [inhibitor, partial curve]
CCOC(=O)[C@H]1[C@H]2COc3ccc(Cl)cc3[C@@H]2N2C(=O)[C@@H](C)NC(=O)[C@@]12C	inconclusive: -30.7% [inhibitor]	
CCC(=O)N1CCN(c2ccc(Cl)cc2NC(=O)c2cccc([N+](=O)[O-])c2)CC1		inconclusive [inhibitor, single point]
CC(=Nc1ccccc1)C1=C(O)CSC1=O		inactive
O=C(C[C@H]1C[C@H](C(=O)N2CCCCC2)[C@@]2(CCc3ccccc3)c3[nH]c4ccc(Cl)cc4c3CCN2C1=O)NCc1cccc(C(F)(F)F)c1		active: 13 µM
Cc1ccc(-c2c(C#N)c(N)n(-c3ccccc3C)c(=O)c2C#N)cc1	inconclusive: -31.1% [inhibitor]	
CCCN1C(=O)c2[nH]nc(-c3ccccc3)c2C1c1cccc(O)c1 (centres undefined)		active: 18.4 µM
COc1ccc(CCNC(=O)c2cc(Cl)nc3ccccc23)cc1		inconclusive [inhibitor, single point]
O=C(c1ccc2nc(N3CCCCC3)sc2c1)N1CCN(Cc2ccc3c(c2)OCO3)CC1		inconclusive [inhibitor, single point]
CCc1nc2c(OCCOc3ccc(F)cc3)cccn2c1N(C)C(=O)CC(C)C		active: 16.4 µM
CCN(CC)CCNS(=O)(=O)c1ccc2c3c(cccc13)C(=O)N2		inconclusive [inhibitor, single point]
CC1(C)CC2CC(C)(CN2C(=O)NC(=O)c2ccccc2)C1 (centres undefined)		inactive
O=C(CSc1cn(CC(=O)N2CCCCC2)c2ccccc12)NCc1ccccc1		inconclusive [inhibitor, single point]
COCc1cc(C)nc2c1C(=O)NC(c1ccc(C)cc1)N2Cc1ccccc1 (centres undefined)		inconclusive [inhibitor, single point]
COCC(C)NC(C(=O)Nc1ccc(C)c(Cl)c1)c1ccccc1 (centres undefined)		inconclusive [inhibitor, single point]
Cc1c(C(=O)NCc2ccc3c(c2)OCCO3)sc(=O)n1Cc1ccc(S(=O)(=O)N(C)C)cc1		active: 18.4 µM
